# Measured values reported in article PMC4336329 (PLoS ONE, 2015).
# Hit rate of the full screen: of about 310,000 compounds, about 2,200 (0.71%) showed an effect of 50% or more. The effect is printed as a negative number. This is one part of the list.
# Target: human ether-à-go-go-related gene (hERG) potassium channel (human, UniProt Q12809)
# Test: primary screen, population patch clamp on CHO cells stably expressing hERG
# Sequence of human ether-à-go-go-related gene (hERG) potassium channel (Q12809 whole entry, looked up): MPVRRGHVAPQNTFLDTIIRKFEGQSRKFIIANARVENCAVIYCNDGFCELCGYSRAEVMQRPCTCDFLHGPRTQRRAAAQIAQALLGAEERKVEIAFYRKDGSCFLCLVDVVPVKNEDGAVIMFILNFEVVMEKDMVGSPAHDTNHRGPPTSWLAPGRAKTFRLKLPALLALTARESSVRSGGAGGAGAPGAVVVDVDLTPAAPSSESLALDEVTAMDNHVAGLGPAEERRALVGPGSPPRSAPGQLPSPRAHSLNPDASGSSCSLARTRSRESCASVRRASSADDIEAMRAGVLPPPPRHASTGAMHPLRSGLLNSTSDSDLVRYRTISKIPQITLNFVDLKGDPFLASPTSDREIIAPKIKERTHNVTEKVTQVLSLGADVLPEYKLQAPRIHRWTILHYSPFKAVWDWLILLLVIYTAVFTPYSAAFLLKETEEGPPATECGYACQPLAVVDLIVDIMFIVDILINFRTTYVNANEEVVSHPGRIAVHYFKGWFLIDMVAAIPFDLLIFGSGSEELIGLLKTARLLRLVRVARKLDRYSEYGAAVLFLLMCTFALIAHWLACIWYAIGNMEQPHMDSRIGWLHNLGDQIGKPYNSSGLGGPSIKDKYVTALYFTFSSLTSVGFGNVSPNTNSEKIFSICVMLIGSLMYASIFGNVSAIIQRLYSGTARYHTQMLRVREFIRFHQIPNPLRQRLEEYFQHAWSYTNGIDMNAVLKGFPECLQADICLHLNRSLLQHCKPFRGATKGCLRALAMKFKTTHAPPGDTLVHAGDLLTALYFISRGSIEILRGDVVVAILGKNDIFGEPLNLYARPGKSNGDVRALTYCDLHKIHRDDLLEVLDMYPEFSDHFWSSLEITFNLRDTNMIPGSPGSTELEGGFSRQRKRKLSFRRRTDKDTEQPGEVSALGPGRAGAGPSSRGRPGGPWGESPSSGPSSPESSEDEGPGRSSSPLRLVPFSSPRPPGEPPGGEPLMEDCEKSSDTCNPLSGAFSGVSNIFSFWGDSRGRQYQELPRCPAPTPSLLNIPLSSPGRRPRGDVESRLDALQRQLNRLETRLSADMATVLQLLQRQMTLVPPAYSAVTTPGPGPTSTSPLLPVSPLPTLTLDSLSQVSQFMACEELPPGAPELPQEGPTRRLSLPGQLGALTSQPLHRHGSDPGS
row,Structure (SMILES),"hERG current change (%, negative = inhibition) at 1uM [%]"
1,CN(Cc1cccc(C(F)(F)F)c1)C(=O)C1CCC(=O)N(CC2CCCCC2)C1 (stereo not shown),8.5
2,Cc1sc2nc(C3CC3)nc(SCC(=O)N3c4ccccc4CC3C)c2c1C (stereo not shown),9.05
3,CCOc1cc(CN2CCCC(C(=O)c3cccc(C(F)(F)F)c3)C2)ccc1O (stereo not shown),6.84
4,O=c1[nH]c(SCC2CCCCO2)nc2ccccc12 (stereo not shown),7.98
5,CC(C)CC(c1nnnn1C(C)C)N1CCN(c2ccccc2)CC1 (stereo not shown),4.06
6,O=C(NCCS(=O)(=O)N1CCN(c2cccc(Cl)c2)CC1)c1ccco1,-14.1
7,Cc1cccc(NC(=O)Nc2ccc(C)c(C)c2)n1,8.52
8,CCCCNC(=O)c1onc(CSc2ccc(Cl)cc2)c1C(=O)NCCCC,-13.2
9,O=C(Nc1cccnc1)C1CCCN(S(=O)(=O)c2cccc3nsnc23)C1 (stereo not shown),8.02
10,Cc1cccc(OCCCC(=O)NNC(=O)CCN2CCN(c3ccccc3)CC2)c1,11.1
11,CCCCSc1nc2c(cnn2-c2ccccc2)c(=O)n1N,-4.95
12,COc1ccc(N2CC(C(=O)Nc3c4c(nn3-c3ccccc3)CS(=O)(=O)C4)CC2=O)cc1 (stereo not shown),8.24
13,Cc1ccc(Nc2nnc(SCC(=O)Nc3ccc(S(=O)(=O)N4CCOCC4)cc3)s2)cc1,1.69
14,COc1ccc(CCN2CC(C(=O)NCCc3cccnc3)CCC2=O)cc1 (stereo not shown),6.4
15,CCOc1ccc(CNC(=O)CCS(=O)(=O)c2ccc3c(c2)NC(=O)CO3)cc1OC,21.2
16,Cc1nc2ccccc2c2oc(C(=O)NCCN3CCN(C)CC3)cc12,12.3
17,O=C(C(c1ccccc1)c1ccccc1)N1CC[C@@]2(O)CCCC[C@H]2C1,7.6
18,COc1ccc2c(c1)-c1nc(/N=C/c3ccc(O)c(OC)c3)sc1CC2,6.84
19,Cc1ccc(NC(=O)Cc2n[nH]c(=O)c3ccccc23)cc1S(=O)(=O)N1CCCCCC1,-2.11
20,CCOC(=O)c1c(C)nc(C)c(C(=O)OCC)c1-c1ccc(OC)cc1,-5.86
21,COc1ccc(N2C(=O)CC(Sc3nc(C)c4c(n3)CCCC4)C2=O)cc1 (stereo not shown),4.9
22,CN=C(NC1CCCCC1)c1ccc([N+](=O)[O-])cc1,11.1

row,Structure (SMILES),"hERG current change (%, negative = inhibition) at 1uM [%]"
1,Cc1c(OCC(=O)NCCCn2ccnc2)ccc2c3c(c(=O)oc12)CCC3,5.67
2,Cc1snc(SCC(=O)N/N=C(\N)COc2cccc(C(F)(F)F)c2)c1C#N,-1.46
3,COc1ccc(N(CC(=O)NN=C2CCCCCCC2)S(=O)(=O)c2ccccc2)cc1,0.301
4,Cc1cc(N)ccc1NC(=O)CN1CCCC1,14.2
5,Cc1c(NC(=O)c2cnn3cccnc23)c(=O)n(-c2ccccc2)n1C,9.72
6,COCC(C)n1c(SCC(=O)NC(=O)Nc2ccc3c(c2)OCCO3)nc2ccccc2c1=O (stereo not shown),11
7,CCN1CCN(S(=O)(=O)c2cc(C(=O)O)ccc2Cl)CC1.Cl,0.0093
8,C[C@H](NC(=O)NCCc1ccccc1)C(=O)O,-1.24
9,O=C(Cn1cnnn1)Nc1ccccc1Cc1ccccc1,10.5
10,COc1ccc(C2=NOC(Cn3nc(C(=O)NCc4ccc(C)cc4)cc3-c3ccccc3)C2)cc1 (stereo not shown),9.54
11,Cc1ccc(CNC(=O)CCS(=O)(=O)c2ccc3c(c2)CC(C)N3C(=O)C2CC2)cc1 (stereo not shown),0.306
12,CCCN1C(=O)C(O)(CC(=O)c2ccc3c(c2)OCCO3)c2ccccc21 (stereo not shown),5.63
13,COc1cccc(CNS(=O)(=O)c2csc(C(N)=O)c2)c1,28.9
14,Cc1cc(C=C2C(=O)N(C)C(=O)N(C)C2=O)c(C)n1-c1ccccc1,18.7
15,CC(Sc1nnc(N)s1)C(=O)NCc1ccc2c(c1)OCO2 (stereo not shown),12.3
16,O=C(Nc1ccc(Cl)cc1)N1CCSCC1,13.4
17,CSc1nc2c(ccc3ccccc32)o1,15.2
18,CCNC(=S)NNC(=O)c1ccccc1OC(F)F,5.6
19,Cc1ccc(C)c(N2C(=O)CS/C2=N\NC(=O)c2ccccc2Cl)c1,7.21
20,CC(NC(=O)c1csc2ccccc12)C1CCCO1 (stereo not shown),-5.8
21,Cc1ccc(C)c(OCCn2cc(/C=C(\C#N)C(=O)NCc3ccco3)c3ccccc32)c1,15.3
